Laboratory results reported in PMC12136788.
This is one part of the list.

B1: chr7:74121655:74121756:+|3pUTR|ENSG00000106683|msi1|FALSE|unique (ssRNA)
RNA: GGGAGUUCUACAGUCCGACGAUCGCCCCUUUCCACACGCCGCUGCCCCAGCAACCCUGUUCACGCUCCACCUGUCUGGUCCAUAGCUCCCUGGAGGCUGGGCCAGGAGGCAGCCUCCGAACCAUGCCCCAUAUAACGCUUGGGCAACAGAGGAUUGAGCAUCA
B2: ENSG00000198589:be:win_3701|CDS|ENSG00000198589|bound_else_gene|NA|bound_elsewhere_windowed (ssRNA)
RNA: GGGAGUUCUACAGUCCGACGAUCAGGCUUCUUCUGAGCAAAAGAUUGCGAAGUUGGAUGUUUCCAAUGUUGCUACAGAUACUGAGAGGCUGGAGUUGAAGGCCAGUCCCAACGUGGAAGCACCUCAACCUCAUCGACAUGUGCCAACAGAGGAUUGAGCAUCA
B3: chr4:25747873:25747886:-|3pUTR|ENSG00000091490|msi1_unk|FALSE|overlapping (ssRNA)
RNA: GGGAGUUCUACAGUCCGACGAUCUAGCAGUUAUAAGGCACCUUGAAAUAAAUUGUUUGUGCCUGGAAAUGCAGGGAGGGCAAUAGCUUUGUAAAUUGGUUUACAUUUUUCUCCUUGAAUUUUUCUAGGGUCCUAGUGCUUCCGCAACAGAGGAUUGAGCAUCA
B4: chr6:36855602:36855703:-|3pUTR|ENSG00000137168|msi1|total|mutant (ssRNA)
RNA: GGGAGUUCUACAGUCCGACGAUCGUCAUGAAGCUCCGGAGGCCUGGCAUCUUGGGUGAGUCCGAGAUGGAAGUACAUUUUAACCGGAUGCUUCUUUUCUCUUCCCCCAGUGCCCCGGUUGCCAGAGCAUUUGCACAAAUGCCCCAACAGAGGAUUGAGCAUCA
B5: ENSG00000198589:be:win_1901|CDS|ENSG00000198589|bound_else_gene|NA|bound_elsewhere_windowed (ssRNA)
RNA: GGGAGUUCUACAGUCCGACGAUCGUGGUAUCACCCCAAAAGGAUUAGAUGGACCGCGACCUAAUCAAAAAGAAAUGCUUUCUCUACGAGCAUUCUUGUUGAUGUUCAUUAAGCAAUUAGUGAUGAAGGAUUCUGGAGUAAAGGCAACAGAGGAUUGAGCAUCA
B6: chr9:34664162:34665309:-|three_prime_utr|ENSG00000187186|control|control|control (ssRNA)
RNA: GGGAGUUCUACAGUCCGACGAUCGGACCCGCCCCGGGCAUGGACGGGACUCAGUCUCUGAGGACCCAUCGGGGGGAAUCCGGUAGCUCCCGCCCCGCCUCAUGCCAGUGUCGGGUCGCCCCACAGCUCGGCGCACCCCGGGGACAACAGAGGAUUGAGCAUCA
B7: ENSG00000198589:be:win_9251|3pUTR|ENSG00000198589|bound_else_gene|NA|bound_elsewhere_windowed (ssRNA)
RNA: GGGAGUUCUACAGUCCGACGAUCGGAAAUGCUCUUGAGCUCACAACAUUUGUUUUUCUUUUAAAGUAAAUGCAAGUACCAAAGCUCACUACUGCGGUUUGCCUGUGCCUGGACAAUGAGGCGGAGCCACUGUUGUUUUGUUGGCAACAGAGGAUUGAGCAUCA
B8: chr15:34752480:34753372:-|CDS|ENSG00000159248|control|control|control (ssRNA)
RNA: GGGAGUUCUACAGUCCGACGAUCCCCCUGCAUCAAGGAGGUGGAAUGUUAUGUGUCCCGGCCAACUGAGAAGACUGUCUUUCUAGUGUUCAUGUUUGCUGUAAGUGGCAUCUGUGUUGUGCUCAACCUGGCUGAACUCAACCACAACAGAGGAUUGAGCAUCA
B9: chr3:53865378:53865479:+|3pUTR|ENSG00000056736|unk|FALSE|unique (ssRNA)
RNA: GGGAGUUCUACAGUCCGACGAUCAUUACAGGGAAAAAACGUGUGAUGAUCCUGAAGCUUACUAUGCAGCCUACAAACAGCCUUAGUAAUUAAAACAUUUUAUACCAAUAAAAUUUUCAAAUAUUGCUAACUAAUGUAGCAUUACAACAGAGGAUUGAGCAUCA
B10: chr11:128839127:128840264:-|CDS|ENSG00000151704|control|control|control (ssRNA)
RNA: GGGAGUUCUACAGUCCGACGAUCAAGACAGUGGAAGUGGAGACCCCUCACUGUGCCAUGUGCCUUUAUAAUGAGAAAGAUGUUAGAGCCAGGAUGAAGAGAGGCUAUGACAACCCCAACUUCAUCUUGUCAGAAGUCAAUGAACAACAGAGGAUUGAGCAUCA
B11: ENSG00000107863:be:win_4001|CDS|ENSG00000107863|bound_else_gene|NA|bound_elsewhere_windowed (ssRNA)
RNA: GGGAGUUCUACAGUCCGACGAUCACCAUGACUGGUUUUUCACAGAAGAAGGUGCUGAAGAGCCUCUUACAACAGUGCAGGAGGAAAGCACAGUAGACUCCCAGCCAGUGCCAAACAUAGAUCAUUUACUCACCAACAUUGGAACAACAGAGGAUUGAGCAUCA
B12: chr10:91841327:91841437:+|CDS|ENSG00000107854|unk|total|mutant (ssRNA)
RNA: GGGAGUUCUACAGUCCGACGAUCUUCUUAUGGACAUUAUGAAGUUGCAGAACUUCUUGUUAAACAUGGAGCAGCCGUUAAUGCCGCUGAUUUAUGGAAAUUUACACCUUUACAUGAAGCAGCAGCAAAAGGAAAAUAUGAAAUCAACAGAGGAUUGAGCAUCA
B13: chr20:58910839:58911044:+|3pUTR|ENSG00000087460|msi1_unk|total|mutant (ssRNA)
RNA: GGGAGUUCUACAGUCCGACGAUCCCUUAAGCACAAUUAAUUAAAAGUGAAACGUAAUUGUACAAGCAGUUAAUCACCCACCACCGGGCAUGAUUAACAAAGCAACCUUUCCCUUCCCCCGAGUGAUUUUGCGAAACCCCCUUUCAACAGAGGAUUGAGCAUCA
B14: ENSG00000177426:stop:overlap|stop_codon|ENSG00000177426|stop_codon|NA|stop_codon (ssRNA)
RNA: GGGAGUUCUACAGUCCGACGAUCCUCAAAGACAGAAGGAAUAUCUUUUUAUUGUAAACUUGAUAGUGUUAAAAGCUAAUAACUAGCUAUUUAGAGAACACAGAAACACUUGACAGUCAUCUAUCAGAUAGCAUUUCCUUUAAUCAACAGAGGAUUGAGCAUCA

Target: T1, UNK ZnF1-6 (called full-length) (human, UniProt Q9C0B0 30-357)
T1 sequence: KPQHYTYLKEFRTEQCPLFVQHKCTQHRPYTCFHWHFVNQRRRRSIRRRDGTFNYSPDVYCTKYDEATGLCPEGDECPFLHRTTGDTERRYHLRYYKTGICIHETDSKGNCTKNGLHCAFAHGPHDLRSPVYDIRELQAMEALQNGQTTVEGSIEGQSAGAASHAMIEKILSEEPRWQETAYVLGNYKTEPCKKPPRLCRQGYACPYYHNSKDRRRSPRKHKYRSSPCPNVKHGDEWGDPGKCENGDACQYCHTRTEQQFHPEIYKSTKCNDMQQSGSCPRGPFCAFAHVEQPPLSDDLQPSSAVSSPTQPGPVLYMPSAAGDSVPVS
Assay: nsRBNS (natural sequence RNA bind-n-seq); RBNS binding buffer (assumed for nsRBNS): 25 mM Tris pH 7.5, 150 mM KCl, 3 mM MgCl2, 0.01% Triton X-100, 500 ug/ml BSA, 20 U/ml SUPERase-In, 4 C; UNK is unkempt and MSI1 is Musashi-1; names of the RNAs are library labels; protein concentration not given here; high values mean tight binding

Going from B1 to B2, the binding signal falls from 1.2 enrichment R to 0.462 enrichment R.

Going from B3 to B4, the binding signal falls from 1.81 enrichment R to 0.434 enrichment R.

Going from B5 to B6, the binding signal rises from 0.55 enrichment R to 0.575 enrichment R.

First: B7
Second: B8
The binding signal of the first is lower: 0.637 enrichment R for the first, 0.717 enrichment R for the second.

Going from B9 to B10, the binding signal falls from 0.777 enrichment R to 0.442 enrichment R.

Compared with B11, B12 is lower in binding signal: 1.09 enrichment R for the first, 0.509 enrichment R for the second.

Going from B13 to B14, the binding signal rises from 0.563 enrichment R to 0.689 enrichment R.
